The other results are listed elsewhere or left out. At the low end of the ranking the order means little. The protein was read in a cell extract, so binding may be indirect.

This assay addresses T1, HNF4alpha2 (COS-7 nuclear extract) (UniProt P41235).
T1 sequence: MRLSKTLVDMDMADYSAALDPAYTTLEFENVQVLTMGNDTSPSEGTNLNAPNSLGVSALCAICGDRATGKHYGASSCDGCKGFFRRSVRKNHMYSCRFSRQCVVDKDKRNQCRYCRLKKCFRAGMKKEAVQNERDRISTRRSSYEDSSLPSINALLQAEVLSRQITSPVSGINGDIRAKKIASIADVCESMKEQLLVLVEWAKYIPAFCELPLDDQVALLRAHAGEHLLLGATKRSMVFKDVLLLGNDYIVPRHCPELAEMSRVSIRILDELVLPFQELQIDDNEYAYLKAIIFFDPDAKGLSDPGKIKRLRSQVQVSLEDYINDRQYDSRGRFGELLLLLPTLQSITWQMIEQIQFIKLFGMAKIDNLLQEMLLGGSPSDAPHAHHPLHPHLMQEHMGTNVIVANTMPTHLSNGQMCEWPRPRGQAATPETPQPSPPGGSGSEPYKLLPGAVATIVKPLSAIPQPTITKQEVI
The assay is described as follows: protein-binding microarray. Conditions: COS-7 nuclear extract on double-stranded Agilent 4x180k PBM; binding buffer, salt, pH and temperature not given; high values mean tight binding; double strand, one strand shown; sequences stand for … in …GCCTAGGGAGATTAGAGTATCGGTCGA
Regarding CTTCTCATACTACTGTACTTTGCTCTCAGC, the binding signal (log2 normalized intensity) worked out at 4.45.

In the case of ACCAGGATAGGGAGGGGTAAGGGTGGGGGT, the binding signal (log2 normalized intensity) is -1.05.

Take ATTAGAACAAACGACGCTCCTATCATCCCT: the binding signal (log2 normalized intensity) was -1.11.

Consider ACATCACCTACCTGACTCCTTAGGGATTTG, for which the binding signal (log2 normalized intensity) is -1.23.

In the case of GGACAGGTGCGACGAACGGGTAAATCCGGT, the binding signal (log2 normalized intensity) was -1.19.

TAATCAACTGCAGGAGTCGGGAGGTAGGGG: the binding signal (log2 normalized intensity) is -1.14.

ACCAGACAGCACCTCTCTGATGCCATGATA: the binding signal (log2 normalized intensity) was -1.24.

Consider TATATGAGTGTATAGTGGCACTGTTATGAC, for which the binding signal (log2 normalized intensity) was 1.76.

Turning to AGACTTTGCACCAAGGAGACACCCCTGCAG, the binding signal (log2 normalized intensity) amounted to 1.03.

Turning to GTTCTTGCTACCTACTCATTCATATCACCT, the binding signal (log2 normalized intensity) came out at 0.369.

As to TGGGCCAAAGGTCATACCTGTCTAGGTGGA, the binding signal (log2 normalized intensity) came to 4.07.

As to GGGCATTAGGTGGACAGGGGTGTGTTGACC, the binding signal (log2 normalized intensity) was 2.93.

Take TCAGAGGCCTGAAGGCCCCCAGGTAGCTGC: the binding signal (log2 normalized intensity) stood at 1.81.

Consider CCTGTCTGACAGGATGAATTTATTGCCCTC, for which the binding signal (log2 normalized intensity) worked out at 2.87.

Regarding CCCCAAATCCCCTTCAAGTCTGAGATGAAG, the binding signal (log2 normalized intensity) came out at 1.96.

As to TGGTCCCAGGGGAGGTTATCTTGGGGCTAA, the binding signal (log2 normalized intensity) was -1.07.

Take ATAATAAATAAGGGAGGTAAAAGTCCAACA: the binding signal (log2 normalized intensity) worked out at 2.47.

On to TCTGACTCGGGTGTTCACAGGTGACCTCTG, for which the binding signal (log2 normalized intensity) is 4.72.

Turning to GTAAACATTTGCCTTTAGGGCCCCCTGTGA, the binding signal (log2 normalized intensity) came to 2.28.

For TAAGGTGTTGAAAAGAGCATAAGGTTTCCA, the binding signal (log2 normalized intensity) was -1.02.

Consider TGGCCTTGCTTTTCACAGTCGATCTTTGAC, for which the binding signal (log2 normalized intensity) came to 2.3.

On to TCCTTTCCTCCTATGTCAATAGAGCATGAG, for which the binding signal (log2 normalized intensity) worked out at 0.00627.

As to TCTTTTCTAAGACATAACACAGGTGACCTT, the binding signal (log2 normalized intensity) was 4.03.

Take GTCAATAGTTGTGTAAATAGCTCAGGGACT: the binding signal (log2 normalized intensity) is -1.12.

GTCCACACATTCCTAGACCTTTGACCTTTA: the binding signal (log2 normalized intensity) was found to be 8.13.

On to AAGCAAACAAAACACGGACTTTGAAGCTCC, for which the binding signal (log2 normalized intensity) amounted to 1.95.

As to AGGTCAAAATATCTGATCGATATCCTAACC, the binding signal (log2 normalized intensity) was -0.858.

AATCTGCATCCCCAAGCTGTTATTCCAGGC: the binding signal (log2 normalized intensity) stood at 1.83.

Regarding TGCTGGTCAGGAGACTGCTCGGCATCCCTG, the binding signal (log2 normalized intensity) is -1.14.

AGAGGTCGTGTCTCCATTCAGCATTGCTTG: the binding signal (log2 normalized intensity) is -0.703.

For the sequence GGGGGGAGACAACTGCAACAGGAGGACCTC, the binding signal (log2 normalized intensity) is -1.12.

In the case of GAATGAAACGGATGCAAAGGCTGAGCCCTT, the binding signal (log2 normalized intensity) was -1.13.

For GACACCAGGGAACACACCATGTACAGAGAG, the binding signal (log2 normalized intensity) was -1.19.

Take AGGTGTTTCAGATGGACCAAAGGTCTTGTA: the binding signal (log2 normalized intensity) is 2.83.

For ATCATTGTGCAACCTGGACATTGGCTGATA, the binding signal (log2 normalized intensity) came out at 1.74.

Turning to GACCTGTCTTCCTGGTGACCTTTGTTTGGT, the binding signal (log2 normalized intensity) was 4.94.

With AACAAGTAAAATGAGCAAACAGAACTGTTA, the binding signal (log2 normalized intensity) was -1.17.

Consider AGGAATGTTCATTCATTCACCTTTCGCCCT, for which the binding signal (log2 normalized intensity) came to 2.95.

For the sequence CACTGATAAGTCTGCTTGCCATTAATGAAA, the binding signal (log2 normalized intensity) is -1.07.

Consider CAGCGCTTTGGTAGGCTGTATGGCTGCACA, for which the binding signal (log2 normalized intensity) is -1.27.

Values taken from publication PMC10726135.
